Assay results reported in PubChem BioAssay AID720708 (National Center for Advancing Translational Sciences (NCATS), 2013).
Hit rate of the full screen: of about 360,000 compounds, about 660 (0.18%) were called active. The shares of active, inactive and inconclusive entries below differ from those in the screen. Calls follow the shape of the dose curve; as a rule, active = well fitted inhibition curve with a large enough effect; inconclusive = small, poorly fitted or top-dose-only effect; inactive = no such curve, though single readings can be large or run the other way. No potency is given beside an inconclusive call; the fits are too rough.

Biological target: Rap guanine nucleotide exchange factor 4 (Homo sapiens) (UniProt Q8WZA2)
UniProt Q8WZA2, sequence (Q8WZA2 whole entry, looked up): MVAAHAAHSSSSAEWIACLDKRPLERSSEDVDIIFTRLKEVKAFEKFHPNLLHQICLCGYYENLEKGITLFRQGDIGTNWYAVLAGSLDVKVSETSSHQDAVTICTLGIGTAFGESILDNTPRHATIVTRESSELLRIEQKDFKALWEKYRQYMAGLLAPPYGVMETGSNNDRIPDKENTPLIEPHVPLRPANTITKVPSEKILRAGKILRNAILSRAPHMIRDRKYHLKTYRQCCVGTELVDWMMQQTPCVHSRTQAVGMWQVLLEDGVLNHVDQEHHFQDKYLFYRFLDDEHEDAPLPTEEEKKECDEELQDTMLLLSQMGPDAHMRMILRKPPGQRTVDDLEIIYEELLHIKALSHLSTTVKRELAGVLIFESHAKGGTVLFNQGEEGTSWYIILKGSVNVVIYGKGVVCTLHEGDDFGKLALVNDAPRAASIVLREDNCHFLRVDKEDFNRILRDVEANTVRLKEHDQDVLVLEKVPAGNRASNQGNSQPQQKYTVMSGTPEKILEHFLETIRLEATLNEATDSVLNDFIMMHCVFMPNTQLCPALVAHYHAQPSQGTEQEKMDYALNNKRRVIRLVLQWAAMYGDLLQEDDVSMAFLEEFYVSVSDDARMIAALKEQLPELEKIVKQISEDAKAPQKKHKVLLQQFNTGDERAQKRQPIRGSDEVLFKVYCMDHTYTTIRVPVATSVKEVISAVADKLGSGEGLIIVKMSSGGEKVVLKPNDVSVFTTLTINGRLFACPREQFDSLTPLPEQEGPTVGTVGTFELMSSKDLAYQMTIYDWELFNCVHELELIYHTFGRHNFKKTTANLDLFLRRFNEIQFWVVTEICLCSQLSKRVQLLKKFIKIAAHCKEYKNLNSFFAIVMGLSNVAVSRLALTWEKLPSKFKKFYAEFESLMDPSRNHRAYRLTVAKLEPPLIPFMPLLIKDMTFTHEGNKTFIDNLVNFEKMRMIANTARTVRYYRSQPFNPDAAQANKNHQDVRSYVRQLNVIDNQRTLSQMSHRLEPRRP
Assay: qHTS for Antagonist of cAMP-regulated guanine nucleotide exchange factor 2 (EPAC2): primary screen; also: nearly all actives have a fitted effect of over 45% in size
Conditions: EPAC2 GEF exchange of Rap1B-BODIPY-GDP, fluorescence; activity, negative = inhibition: at 114 µM (top of the series) unless noted
% is scaled to controls: 0 for no effect and ±100 for the full control effect; potency is read from the fitted curve at half-maximal effect; tags tell the direction and shape of the fitted curve.

SMILES	activity, negative = inhibition	Potency
COc1ccc(NC(=O)c2ccc3[nH]c(=O)c(=O)[nH]c3c2)c(OC)c1	inactive: -3.5%	–
Cc1cc(C)c(OCC(=O)NCC(c2ccco2)N2CCCCC2)c(C)c1 (stereo not drawn)	–	inconclusive [inhibitor, full curve, poor fit]
O=C(/C=C/c1cccc([N+](=O)[O-])c1)c1ccco1	inactive: -1.75%	–
COc1cc(OC)c2ccc(=O)oc2c1C(CC(=O)N1CCCC(C)C1)c1ccc2c(c1)OCO2 (stereo not drawn)	–	inconclusive [inhibitor, partial curve]
COc1ccc(SC[C@H](C)CN2CC[C@H](C(C)(C)C)CCC2=O)cc1	–	inconclusive [inhibitor, full curve, poor fit]
COc1ccc(Cl)cc1CC1(C)C(=O)Nc2c(Cl)cccc21 (stereo not drawn)	–	inconclusive [inhibitor, partial curve]
Fc1cccc(Cc2c(-c3ccccc3)nc3ccc(Cl)cn23)c1	–	inconclusive [inhibitor, single point]
CC(=O)NC(c1ccc(Cl)cc1)c1c(O)ccc2ccc(O)cc12 (stereo not drawn)	–	inconclusive [inhibitor, partial curve]
CCCCCc1c(-c2ccc(OC)c(OC)c2)ncn1CCc1ccccc1OC	–	inconclusive [inhibitor, single point]
CCCNC(=O)Cn1c(=O)/c(=C\c2ccc(-c3ccc([N+](=O)[O-])cc3)o2)s/c1=C\C(=O)C(C)(C)C	–	inconclusive [inhibitor, partial curve, poor fit]
O=C(NCC(c1ccco1)N1CCc2ccccc21)c1c(F)cccc1F (stereo not drawn)	–	inconclusive [inhibitor, partial curve]
Cc1ccc(S(=O)(=O)NC(=O)C2(C)CCN2C(=O)Cc2ccc(-c3ccccc3)cc2)cc1 (stereo not drawn)	–	inconclusive [inhibitor, full curve]
Cc1ccccc1-c1cnc(C(O)c2cc(Cl)cc(Cl)c2)[nH]1 (stereo not drawn)	–	inconclusive [inhibitor, partial curve]
COc1ccc(-c2ccc(C(=O)Nc3cccc(N(C)C)c3)c3occc23)c(C)c1	–	inconclusive [inhibitor, full curve, poor fit]
COc1ccc(C(C)=O)cc1CSc1ccccn1	–	inconclusive [inhibitor, partial curve]
Cc1cc2c(cc1C)C(c1ccccc1OC(C)C)CC(=O)N2 (stereo not drawn)	–	inconclusive [inhibitor, full curve]
O=C(NCCc1ccccc1)c1cc2ccccc2oc1=O	–	inconclusive [inhibitor, full curve]
COc1cc(COCC(O)CN2C(C)CCCC2C)cc(OC)c1OC (stereo not drawn)	inactive: -3.55%	–
COc1ccc(/C=N/Nc2ccc(C(=O)O)cc2)cc1OC	inactive: -7.96%	–
COc1ccc2c(CC(=O)Nc3ccccc3N3CCOCC3)coc2c1	–	inconclusive [inhibitor, single point]
CC1CCCCC1Nc1nc2ccc(Cl)cc2n2cnnc12 (stereo not drawn)	–	inconclusive [inhibitor, full curve]
CCOC(=O)NC1Cc2ccccc2C1Sc1ccccn1 (stereo not drawn)	–	inconclusive [inhibitor, partial curve]
CC1=CC(C)(C)NC(=S)N1C(C)c1ccccc1 (stereo not drawn)	–	inconclusive [inhibitor, full curve]

SMILES	activity, negative = inhibition	Potency
COc1cccc(-c2nc(SCC(=O)Nc3nc(-c4ccccc4)c(C)s3)[nH]c(=O)c2C#N)c1	–	active: 25.1 µM
CN(C)Cc1cccc(-c2ccccc2)c1O	–	inconclusive [inhibitor, full curve]
COc1ccccc1CNC(=O)C1CC(c2cccc([N+](=O)[O-])c2)=NO1 (stereo not drawn)	–	inconclusive [inhibitor, single point]
Cc1sc(NC(=O)C2CCCCC2)c(C#N)c1-c1ccccc1	inactive: 5.55%	–
O=C(O)c1ccc(N/N=C/c2ccc(-c3cccc(Cl)c3)o2)cc1	–	inconclusive [inhibitor, partial curve]
CCOC(=O)[C@@H]1[C@H]2COc3ccccc3[C@H]2N2C(=O)N(c3cccc(F)c3)C(=O)[C@]12C	–	inconclusive [inhibitor, full curve, poor fit]
CCC(=C(c1ccc(OC)cc1)c1ccc(OC)cc1)c1cn(CC(O)CN2CCN(C)CC2)c2ccccc12 (stereo not drawn)	–	inconclusive [inhibitor, single point]
CCNC(=S)N/N=C/c1cccc(OCc2c(F)cccc2Cl)c1	inactive: -4%	–
Nc1nc(COc2ccc(F)cc2Cl)nc(N2CCCCC2)n1	–	inconclusive [inhibitor, partial curve]
O=C(NCC(c1cccs1)N1CCOCC1)c1cc2ccccc2o1 (stereo not drawn)	inactive: 5.42%	–
CCc1ccc(-n2c(=S)sc3c(=O)[nH]c(SCC(=O)NC4CCCCC4)nc32)cc1	–	inconclusive [inhibitor, partial curve]
O=C(NCc1ccccc1)C(CCc1ccccc1)n1c(=O)c(-c2cc3ccccc3[nH]2)nc2ccccc21 (stereo not drawn)	–	inconclusive [inhibitor, full curve, poor fit]
CC1(c2nnc(-c3ccccc3)o2)CC(c2ccccc2)=NO1 (stereo not drawn)	–	inconclusive [inhibitor, partial curve]
Cc1ccnc(NC(=O)CCC(=O)N(CC(=O)NC(C)(C)C)c2ccc3c(c2)OCO3)c1	inactive: 2.79%	–
CCC1CN(C(=O)NCc2ccccc2)c2cc(C)ccc2O1 (stereo not drawn)	–	inconclusive [inhibitor, single point]
Cc1ccc(-c2ccc(=O)n(CC(=O)NCCC(C)C)n2)cc1	inactive: 1.17%	–
Cc1c(C(=O)c2ccc(F)cc2F)c2ccccn2c1CCC#N	inactive: -8.31%	–
CCCCCc1c(-c2ccc(F)cc2)ncn1CCc1ccccc1OC	–	inconclusive [inhibitor, partial curve]
Cc1ccc(C2CC(c3cccs3)=NN2C(=O)CCl)cc1 (stereo not drawn)	–	inconclusive [inhibitor, full curve]
CN1CCN(C2=C(Cl)C(=O)C(c3cnc(N4CCCCC4)s3)=C(Cl)C2=O)CC1	inactive: 12.8%	–
Clc1ccc(CONc2ncnc3nonc23)c(Cl)c1	–	inconclusive [inhibitor, partial curve]
CCOC(=O)C1=C(C)NC(=O)CC1c1ccccc1OC (stereo not drawn)	inactive: -2.35%	–
CC(C)(c1cc(Br)c(O)c(Br)c1)c1cc(Br)c(O)c(Br)c1	–	inconclusive [inhibitor, partial curve]

SMILES	activity, negative = inhibition	Potency
CCc1ccc(S(=O)(=O)/N=C2/C=C(Sc3ncn[nH]3)C(=O)c3ccccc32)cc1	–	active: 39.8 µM
Cc1ccc(F)c([C@H]2[C@H]3C=CC[C@@H](C)[C@@H]3C(=O)N2Cc2ccccc2)c1	–	inconclusive [inhibitor, partial curve]
O=C(Oc1ccc2c(c1)O/C(=C\c1ccncc1)C2=O)c1cccs1	inactive: 4.1%	–
Cc1ccc2oc(=O)c3cnn(CC(=O)NCCc4ccsc4)c3c2c1	inactive: 1.72%	–
Cc1cccc2c(=O)cc(C)n(Cc3ccccc3)c12	–	inconclusive [inhibitor, single point]
Cc1ccccc1N=C(c1ccccc1)C1C(=O)c2ccccc2C1=O	–	inconclusive [inhibitor, full curve]
CCC1(C)Cc2c(sc3nc(SC)nc(NCCN(C)C)c23)CO1 (stereo not drawn)	inactive: 1.55%	–
COC(=O)c1cn(C(=O)c2cccc(Br)c2)c2ccccc12	–	inconclusive [inhibitor, full curve, poor fit]
COc1ccc(CCn2c(=N)c(S(=O)(=O)c3ccc(C)cc3)cc3c(=O)n4ccccc4nc32)cc1	–	active: 89.1 µM
O=C(O)c1cc(NS(=O)(=O)c2ccc3ccccc3c2)ccc1O	–	inconclusive [inhibitor, full curve, poor fit]
COc1ccc2c(c1)cc(C(O)c1ccccn1)n2S(=O)(=O)c1ccccc1 (stereo not drawn)	–	inconclusive [inhibitor, full curve, poor fit]
CCCCCCCC/C=C\CCCCCCCC(=O)O	–	inconclusive [inhibitor, full curve]
N#C/C(=C\c1cccc(Oc2ccccc2)c1)C(=O)N1CCOCC1	–	inconclusive [inhibitor, single point]
O=C1CC(=O)N(Cc2ccco2)C(=O)N1	–	inconclusive [inhibitor, full curve]
O=C(O)c1ccc(Cl)c(S(=O)(=O)N(Cc2ccccc2)c2ccccc2Cl)c1	–	inconclusive [inhibitor, partial curve]
CN(C)c1ccc(CN(Cc2ccco2)C(=O)c2ccco2)cc1	–	inconclusive [inhibitor, partial curve]
Cn1c(=O)c2ccccc2n(Cc2ccccc2F)c1=O	inactive: 3.44%	–
C[C@H]1CN([C@@H](C)CO)C(=O)c2cccc(NS(=O)(=O)c3ccc(Cl)cc3)c2O[C@@H]1CN(C)CC1CCCCC1	–	inconclusive [inhibitor, partial curve]
COc1cc(C(C)=O)ccc1OCC(O)Cn1nc(C)c(Br)c1C (stereo not drawn)	inactive: 12.7%	–
CCOC(=O)c1cn(Cc2ccccc2)nc1-c1ccccc1	–	inconclusive [inhibitor, partial curve]
CCOC(=O)C1=C(CC)OC(N)=C(C#N)C1c1ccc(OC)c(OC)c1OC (stereo not drawn)	–	inconclusive [inhibitor, single point]
Nc1cccc2c1C(=O)N(Cc1cccc(Cl)c1)C2=O	–	inconclusive [inhibitor, partial curve]
